# According to publication PMC4336329 (PLoS ONE, 2015):
# Hit rate of the full screen: of about 310,000 compounds, about 2,200 (0.71%) showed an effect of 50% or more. Effects have a minus sign here. The list shows a part of the results. Where a SMILES comes first, the peptide text is derived from it. The star is where a group is joined. Bz = O=C(c1ccccc1)*
# Biological target: human ether-à-go-go-related gene (hERG) potassium channel (human, UniProt Q12809)
# Experiment: primary screen, population patch clamp on CHO cells stably expressing hERG
# human ether-à-go-go-related gene (hERG) potassium channel, sequence (Q12809 whole entry, looked up): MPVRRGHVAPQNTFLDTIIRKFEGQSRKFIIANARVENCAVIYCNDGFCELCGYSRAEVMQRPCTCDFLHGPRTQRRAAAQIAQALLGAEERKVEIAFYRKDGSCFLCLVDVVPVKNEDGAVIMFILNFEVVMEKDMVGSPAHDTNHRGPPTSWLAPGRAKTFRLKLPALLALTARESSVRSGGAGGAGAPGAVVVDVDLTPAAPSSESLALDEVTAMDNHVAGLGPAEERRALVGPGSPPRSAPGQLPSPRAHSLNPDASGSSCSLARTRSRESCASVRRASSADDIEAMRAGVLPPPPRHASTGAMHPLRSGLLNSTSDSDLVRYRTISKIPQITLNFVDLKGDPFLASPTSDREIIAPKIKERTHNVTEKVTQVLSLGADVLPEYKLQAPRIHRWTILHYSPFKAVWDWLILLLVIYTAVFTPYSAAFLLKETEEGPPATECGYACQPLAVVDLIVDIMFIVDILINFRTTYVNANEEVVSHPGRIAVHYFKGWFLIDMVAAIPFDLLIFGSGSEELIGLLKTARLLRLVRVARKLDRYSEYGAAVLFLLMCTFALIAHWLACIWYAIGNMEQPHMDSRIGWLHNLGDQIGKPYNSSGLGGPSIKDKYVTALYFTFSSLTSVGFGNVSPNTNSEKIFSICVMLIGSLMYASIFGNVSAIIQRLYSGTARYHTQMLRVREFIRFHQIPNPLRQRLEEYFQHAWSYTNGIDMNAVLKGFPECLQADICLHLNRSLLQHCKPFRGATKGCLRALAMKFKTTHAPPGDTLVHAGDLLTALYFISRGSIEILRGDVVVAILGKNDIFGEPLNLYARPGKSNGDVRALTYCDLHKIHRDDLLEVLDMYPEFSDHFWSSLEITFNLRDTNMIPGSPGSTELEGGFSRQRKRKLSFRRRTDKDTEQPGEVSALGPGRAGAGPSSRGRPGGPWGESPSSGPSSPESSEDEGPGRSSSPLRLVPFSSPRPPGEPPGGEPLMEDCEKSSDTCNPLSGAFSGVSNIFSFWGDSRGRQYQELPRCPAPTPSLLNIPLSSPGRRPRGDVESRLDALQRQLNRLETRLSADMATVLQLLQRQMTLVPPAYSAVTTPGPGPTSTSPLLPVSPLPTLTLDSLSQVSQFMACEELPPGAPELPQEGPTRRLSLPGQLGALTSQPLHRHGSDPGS
row,SMILES,"hERG current change (%, negative = inhibition) at 1uM [%]"
1,COC(CNC(=O)CN1CCN(Cc2ccc(F)cc2Cl)C1=O)OC,7.51
2,O=C(NCCO)/C(=C\c1cccc([N+](=O)[O-])c1)NC(=O)c1ccco1,8.45
3,N#C/C(=C\c1ccc(OC(F)F)cc1)C(=O)N1CCCCC1,4.05
4,COc1ccc(NC(=O)CN(C)C(=O)CSC(c2ccccc2)c2ccccc2)cc1,3.44
5,Cn1cncc1C#Cc1ccc2cc(CCCO)oc(=O)c2c1,15.6
6,NC(=O)CC(NC(=O)c1ccccc1)c1ccc(NCCc2cccc(F)c2)c([N+](=O)[O-])c1 (stereo not shown),14.8
7,CC(=O)c1cn(CC(=O)NCc2ccco2)c2ccccc12,8.69
8,Cc1ccccc1C(=O)N1CCN(c2ccc([N+](=O)[O-])c(NCc3ccco3)c2)CC1,5.64
9,Cc1ccc(NC(=O)CSc2nc3ccccc3c(=O)n2CCCN2CCCCC2)cc1C,-36
10,COc1ccc(C(=O)/C=C/c2ccc(N(C)C)cc2)c(OC)c1,6.75
11,O=C(Cc1c(F)cccc1Cl)NNC(=O)Nc1ccc2c(c1)OCO2,17
12,Cc1ccccc1C(=O)Nc1ccnn1C1CCN(Cc2cnn(C)c2)CC1,-1.26
13,O=C(CSc1n[nH]c(-c2ccncc2)n1)c1cccc([N+](=O)[O-])c1,1.59
14,CC(NC(=O)Cc1ccc(NC2=NC3CS(=O)(=O)CC3S2)cc1)c1ccccc1 (stereo not shown),10.4
15,COc1cccc(CN(C(=O)Cn2nnc(-c3ccccc3F)n2)C(C(=O)NC(C)(C)C)c2ccncc2)c1 (stereo not shown),7.2
16,Cc1ccccc1NC(=O)C1CCN(C(=O)NC2CCCCC2)CC1,6
17,COc1cccc(C(=O)NCC(=O)N/N=C(\C)Cc2ccccc2)c1,14.3
18,CCCC(OC(=O)CC1Sc2ccccc2NC1=O)C(=O)NCc1ccco1 (stereo not shown),9.61
19,Cc1nn(C)c(Oc2cccc(Cl)c2)c1C#N,3.37
20,CCOC(=O)c1oc2ccccc2c1NC(=O)C1CCCCC1,-2.3
21,CCOC(=O)c1c[nH]n(-c2ccc(C)cc2)c1=O,10.1
22,COc1ccc(-c2nnc(SCc3ccccc3F)o2)cc1OC,13
23,Cc1ccc(C)c(/C=N/Nc2ccccn2)c1,-5.26

row,SMILES,"hERG current change (%, negative = inhibition) at 1uM [%]"
1,Cc1ccc(S(=O)(=O)N2CCOCC2)cc1C(=O)NCc1ccccc1CN1CCCC1,-25.6
2,CCCNC(=O)c1onc(CSc2ccc(F)cc2)c1C(=O)NC(C)C,2.99
3,COc1ccc(OC)c(S(=O)(=O)N2CCCC(N3CCN(c4ccccc4)CC3)C2)c1 (stereo not shown),8.5
4,O=C(C1CC1)N1CCN(c2ccc(F)cc2)CC1,17.9
5,O=C(Nc1nnc(-c2ccccc2)o1)NC1CCCCC1,7.53
6,CCS(=O)(=O)c1ccc(O)c(NC(=O)CC2(CC(=O)O)CCCC2)c1,10.9
7,Cc1ccc(S(=O)(=O)N(C)c2nonc2C)cc1,-13
8,CC(=O)c1cccc(NC(=O)Nc2cccs2)c1,9
9,Cc1oc(-c2ccccc2Cl)nc1CS(=O)CC(=O)NCc1ccccc1Cl (stereo not shown),11.3
10,CC(C)(C)c1ccc2c(c1)OC(C(=O)N/N=C\c1ccc[nH]1)CO2 (stereo not shown),1.63
11,COc1ccc2noc3c2c1C(=O)c1ccccc1-3,12.3
12,O=C(Cn1cncn1)N/N=C/c1c2ccccc2cc2ccccc12,3.21
13,Cc1nc2nc(C)c(CCC(=O)NCCCN3CCN(c4cccc(Cl)c4)CC3)c(C)n2n1.Cl,6.6
14,O=C(COc1cccnc1[N+](=O)[O-])Nc1ccccc1Sc1ccccc1,4.72
15,Cc1sc2nc(N3CCOCC3)[nH]c(=O)c2c1-c1ccccc1,2.1
16,CC(C)C(NC(=O)COc1ccccc1)C(=O)O (stereo not shown),2.74
17,COc1ccc(C(c2sc3nc(C)nn3c2O)N2CCN(CCO)CC2)cc1OC (stereo not shown),12.2
18,CCOC(=O)C1=C(CC)Nc2ccccc2N=C1NC(=O)Nc1ccc(Cl)c(Cl)c1,-1.58
19,Cc1cc(Cl)c(S(=O)(=O)NC(C)C)cc1OCC(N)=O,17.3
20,CCOC(=O)c1ccc(NC(=O)Cc2cccs2)cc1,7.18
21,COc1c[nH]n(C2CCCCC2)c(=O)c1=O,13.6
22,CC(=O)C1C(c2cccc(Oc3ccccc3)c2)NC(=O)NC1(O)C(F)(F)F (stereo not shown),4.89
23,CCOC(=O)C1(Cc2ccccc2)CCCN(C(=O)c2ccc(-n3ccnc3)cc2)C1 (stereo not shown),-36.5

row,SMILES,"hERG current change (%, negative = inhibition) at 1uM [%]"
1,O=C(COc1ccc(Cl)cc1Cl)NCc1ccco1,7.23
2,CCCc1nc2sc3ccccc3c(=O)c2c(=O)n1CCOC,15.4
3,CCC(=O)N1N=C(c2cccs2)CC1c1ccc(C)cc1 (stereo not shown),19.2
4,CCCN1CNC(=S)N(c2ccccc2C)C1,12.4
5,O=[N+]([O-])c1ccc(Cl)c(CN2CCCCCC2)c1,9.23
6,CCCCNC(=O)c1ccccc1NS(=O)(=O)c1ccc2c(c1)OCCO2,13
7,CC1CCC/C(=C\c2ccc(O)cc2)C1=O (stereo not shown),10.4
8,COc1ccc2nc(N3CCC(C)CC3)c(C#N)cc2c1,19.1
9,CC1CCCC(NC(=O)COC(=O)c2cccc(S(=O)(=O)N3CCCCC3)c2)C1C (stereo not shown),7.46
10,COCCCNc1nc2ccccc2[nH]c1=O,21.8
11,CCN1CCN(c2nc(N(C)c3ccccc3)nc(N)c2[N+](=O)[O-])CC1,23.3
12,COc1ccccc1CCNC(=O)C(=O)NCC1OCCN1S(=O)(=O)c1ccc(Br)cc1 (stereo not shown),-9.98
13,CCCOc1ccc(/C=N/Nc2ccccc2[N+](=O)[O-])c(OCCC)c1,6.34
14,Cc1ccc2cc(CN(Cc3ccco3)C(=S)NCC3CCCO3)c(=O)[nH]c2c1 (stereo not shown),4.46
15,CN(C)c1ccc(CN2CCCCC2)cc1,20.5
16,O=C(CSc1ccccc1)N1CCN(S(=O)(=O)c2ccccc2)CC1,10.4
17,COC(=O)c1cccnc1NC(=S)NNC(=O)c1ccccc1,21.4
18,COC(=O)/C(C#N)=C/c1ccc(OC(=O)c2ccccn2)cc1,8.64
19,O=C(Nc1ccccc1)c1cc(S(=O)(=O)N2CCOCC2)cs1,-6.54
20,CSc1ccc(S(=O)(=O)Nc2c(C)cccc2C)cc1,10.3
21,O=C(NC(Cc1ccccc1)C(=O)N1CCCC1C(=O)O)c1ccccc1 (stereo not drawn) (Bz-Phe-Pro-OH; configuration not given here),12.2
22,CSc1ccccc1N1CCN(C(=O)Nc2ccc3c(c2)NC(=O)CO3)CC1,-4.72
23,COc1cccc(CNC(=O)c2ccccc2-c2ccccc2)c1,10.4

row,SMILES,"hERG current change (%, negative = inhibition) at 1uM [%]"
1,Cc1cc(C)cc(C(=O)NCC(=O)OCC(=O)N2CCCCC2)c1,8.39
2,Cc1nc(SCc2ccc(Br)cc2)[nH]c(=O)c1C,10.3
3,Cc1ccc(/C=C/C(=O)Nc2cc(S(=O)(=O)N3CCOCC3)ccc2N2CCOCC2)cc1,-8.01
4,Clc1ccc(-c2nsc(N3CCOCC3)n2)c(Cl)c1,12.5
5,CSc1ccc(C(c2c(O)c3ccccc3oc2=O)c2c(C)n(C)n(-c3ccccc3)c2=O)cc1 (stereo not shown),2.76
6,O=C1c2cccc3cccc(c23)C(=O)N1CCN1CCN(C(=S)Nc2ccccc2)CC1,4.16
7,O=C(O)C(Cc1ccc(Cl)cc1)Sc1nc2ccccc2[nH]1 (stereo not shown),12.7
8,CCOC(=O)Cc1nnc(NC(=O)C(CC)Sc2nnc3c4ccccc4n(C)c3n2)s1 (stereo not shown),12.5
9,COC(=O)c1nnn(-c2nonc2N)c1CSc1ccc(Cl)cc1,4.85
10,Cc1cc(N2CCCCC2)nc(SCc2ccc(C#N)cc2)n1,4.03
11,COc1ccccc1Cc1nnnn1CC(=O)O,7.98
12,O=C(CN(Cc1ccccc1F)C(=O)Cn1nnc(-c2cccs2)n1)NC1CCCCC1,11.1
13,COc1cccc(C2(O)CCN(Cc3ccncc3)CC2)c1,11.8
14,O=C(NCCCn1ccnc1)c1cc2c(s1)CCCCC2,0.477
15,COc1cc(NC(=S)Nc2ccc3c(c2)OCCO3)cc(OC)c1OC,11.5
16,Cc1nc(SCC(=O)NCCc2ccc(Cl)cc2)nc(C)c1C,10.8
17,CSC1=N/C(=C\c2ccc(F)cc2)C(=O)S1,-2.96
18,N#CC1(c2ccccc2)CCC(NCCc2ccccc2)CC1.O=C(O)C(=O)O (stereo not shown),-23
19,CCc1ccc(CN2C(=O)c3ccccc3C2C(=O)NCc2cccnc2)cc1 (stereo not shown),6.43
20,CN1CCN(C(=O)C2CC(c3ccc(F)cc3)=NO2)CC1 (stereo not shown),2.24
21,CC(=O)Nc1ccc(NC(=O)Cn2c(CC(=O)N3CCCC3)nc3ccccc32)cc1,6.65
22,Cc1[nH]nc(-c2ccc(OCc3cnn(-c4ccccc4)c3)c(C)c2O)c1Oc1ccccc1,8.49
